Data published in paper PMC8531446, “Light-triggered and phosphorylation-dependent 14-3-3 association with NON-PHOTOTROPIC HYPOCOTYL 3 is required for hypocotyl phototropism” (Nature Communications, 2021).
Changes are numbered by the printed parent chain. Numbers in names are those of the source. These are yes or no findings as the source states them, for the method shown. For some assays here: In cells and extracts the contact can be indirect. Some entries that bind do so weakly or less than the wild type. For some assays here: Where a sequence is shown, tags or fusion partners need not be part of it. Blank lines part the entries; values can stand above or below the binder they belong to.

By UniProt entry, the sequences of proteins in these tests, tags left out.
UniProt O48963: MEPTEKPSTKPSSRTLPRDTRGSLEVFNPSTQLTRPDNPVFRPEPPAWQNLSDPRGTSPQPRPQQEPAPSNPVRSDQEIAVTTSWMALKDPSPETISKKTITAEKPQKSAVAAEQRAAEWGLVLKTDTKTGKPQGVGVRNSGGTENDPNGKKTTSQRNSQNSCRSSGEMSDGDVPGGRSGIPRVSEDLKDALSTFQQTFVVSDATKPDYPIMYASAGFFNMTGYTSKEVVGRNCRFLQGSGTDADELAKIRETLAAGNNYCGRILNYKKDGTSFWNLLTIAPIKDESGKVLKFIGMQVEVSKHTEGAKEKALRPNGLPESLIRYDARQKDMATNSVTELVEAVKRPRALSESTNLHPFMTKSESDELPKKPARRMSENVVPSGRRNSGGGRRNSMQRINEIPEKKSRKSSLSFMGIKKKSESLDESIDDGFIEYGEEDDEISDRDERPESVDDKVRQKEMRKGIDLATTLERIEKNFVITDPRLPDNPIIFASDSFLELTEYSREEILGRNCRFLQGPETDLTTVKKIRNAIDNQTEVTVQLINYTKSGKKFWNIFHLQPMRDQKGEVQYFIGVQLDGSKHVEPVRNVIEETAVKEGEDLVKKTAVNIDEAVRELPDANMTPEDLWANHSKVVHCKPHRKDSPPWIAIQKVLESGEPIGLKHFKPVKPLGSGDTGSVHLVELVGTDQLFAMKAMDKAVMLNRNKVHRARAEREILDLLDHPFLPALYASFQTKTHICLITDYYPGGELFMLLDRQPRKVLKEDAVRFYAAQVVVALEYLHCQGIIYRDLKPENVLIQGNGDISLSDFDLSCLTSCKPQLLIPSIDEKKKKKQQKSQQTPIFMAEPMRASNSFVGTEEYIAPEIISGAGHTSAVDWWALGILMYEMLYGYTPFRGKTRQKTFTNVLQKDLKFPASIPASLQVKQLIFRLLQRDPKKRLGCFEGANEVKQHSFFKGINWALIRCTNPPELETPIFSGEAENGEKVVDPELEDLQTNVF

What was measured:
[1] = target: phot1:GFP (Arabidopsis) (UniProt O48963); test: co-IP; solubilized (0.5% Triton X-100) microsomal proteins from dark-adapted N. benthamiana co-expressing phot1:GFP and RFP:NPH3 variants; GFP-Trap beads, 4 °C, 1 h; washed with 50 mM HEPES pH 7.8, 150 mM NaCl, 0.2% Triton X-100
[2] = target: T1, GFP:NPH3-S744A from N. benthamiana (Arabidopsis thaliana) (UniProt Q9FMF5); test: far-Western, overlay or dot blot; anti-GFP immunoprecipitates from blue-light-treated N. benthamiana leaves (10 μmol m^-2 s^-1, 40 min) or Arabidopsis nph3-7 seedlings (1 μmol m^-2 s^-1) separated by SDS-PAGE, on nitrocellulose; overlaid with RGS(His)6-14-3-3 omega at 20 μg ml^-1 in 50 mM MOPS pH 6.5, 20% glycerol, 5 mM MgCl2, 2 mM DTT, overnight at 4 °C; anti-RGS(His)6 detection; both purified
T1 sequence: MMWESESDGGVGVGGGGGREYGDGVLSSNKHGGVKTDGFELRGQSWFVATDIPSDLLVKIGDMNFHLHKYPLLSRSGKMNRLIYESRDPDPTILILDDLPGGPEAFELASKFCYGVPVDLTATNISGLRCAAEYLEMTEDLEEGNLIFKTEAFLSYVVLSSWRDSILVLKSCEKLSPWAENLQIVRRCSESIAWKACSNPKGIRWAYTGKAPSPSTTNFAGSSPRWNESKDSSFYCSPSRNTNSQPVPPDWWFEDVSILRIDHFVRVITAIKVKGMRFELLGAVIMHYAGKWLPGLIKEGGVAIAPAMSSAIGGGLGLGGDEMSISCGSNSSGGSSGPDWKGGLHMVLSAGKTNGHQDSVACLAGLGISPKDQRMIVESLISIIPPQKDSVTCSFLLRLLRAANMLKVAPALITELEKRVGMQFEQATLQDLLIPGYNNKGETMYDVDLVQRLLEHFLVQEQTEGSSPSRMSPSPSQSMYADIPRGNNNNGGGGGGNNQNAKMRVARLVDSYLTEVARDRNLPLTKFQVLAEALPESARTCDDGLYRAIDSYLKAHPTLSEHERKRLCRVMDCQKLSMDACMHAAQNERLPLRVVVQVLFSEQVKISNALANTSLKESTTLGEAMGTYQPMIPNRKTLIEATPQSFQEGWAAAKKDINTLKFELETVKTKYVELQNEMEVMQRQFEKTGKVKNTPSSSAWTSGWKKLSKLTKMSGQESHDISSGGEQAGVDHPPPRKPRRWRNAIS

[3] = target: T2, 14-3-3 omega:mEGFP (Arabidopsis) (UniProt Q01525); test: co-IP; N. benthamiana leaves co-expressing both proteins (35S promoter), kept under constant light for 42 h or dark-adapted and treated with blue light (10 μmol m^-2 s^-1, 40 min); crude extract precipitated with GFP beads (GFP-Trap); anti-GFP and anti-RFP blots
T2 sequence: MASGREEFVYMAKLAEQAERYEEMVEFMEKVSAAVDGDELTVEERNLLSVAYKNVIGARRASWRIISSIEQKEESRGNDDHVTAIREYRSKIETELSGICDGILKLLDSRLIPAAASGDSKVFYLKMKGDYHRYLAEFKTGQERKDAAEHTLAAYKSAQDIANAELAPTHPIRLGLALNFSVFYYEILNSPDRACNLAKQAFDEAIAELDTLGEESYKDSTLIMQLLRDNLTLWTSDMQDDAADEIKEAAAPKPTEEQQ

[4] = target: T2, 14-3-3 omega:mEGFP (Arabidopsis); test: condition: only dark-adapted plants kept in darkness; co-IP; as a3, but dark-adapted N. benthamiana plants kept in darkness (D); GFP beads; anti-GFP and anti-RFP blots

binding [1]: binds
B1: RFP:NPH3ΔC28 (domain or fragment, UniProt Q9FMF5 1-718)
chain: MMWESESDGGVGVGGGGGREYGDGVLSSNKHGGVKTDGFELRGQSWFVATDIPSDLLVKIGDMNFHLHKYPLLSRSGKMNRLIYESRDPDPTILILDDLPGGPEAFELASKFCYGVPVDLTATNISGLRCAAEYLEMTEDLEEGNLIFKTEAFLSYVVLSSWRDSILVLKSCEKLSPWAENLQIVRRCSESIAWKACSNPKGIRWAYTGKAPSPSTTNFAGSSPRWNESKDSSFYCSPSRNTNSQPVPPDWWFEDVSILRIDHFVRVITAIKVKGMRFELLGAVIMHYAGKWLPGLIKEGGVAIAPAMSSAIGGGLGLGGDEMSISCGSNSSGGSSGPDWKGGLHMVLSAGKTNGHQDSVACLAGLGISPKDQRMIVESLISIIPPQKDSVTCSFLLRLLRAANMLKVAPALITELEKRVGMQFEQATLQDLLIPGYNNKGETMYDVDLVQRLLEHFLVQEQTEGSSPSRMSPSPSQSMYADIPRGNNNNGGGGGGNNQNAKMRVARLVDSYLTEVARDRNLPLTKFQVLAEALPESARTCDDGLYRAIDSYLKAHPTLSEHERKRLCRVMDCQKLSMDACMHAAQNERLPLRVVVQVLFSEQVKISNALANTSLKESTTLGEAMGTYQPMIPNRKTLIEATPQSFQEGWAAAKKDINTLKFELETVKTKYVELQNEMEVMQRQFEKTGKVKNTPSSSAWTSGWKKLSKLTKMSGQES

binding [2]: no binding (tested: 20 μg ml^-1)
B2: RGS(His)6-tagged Arabidopsis 14-3-3 isoform omega (natural protein, UniProt Q01525 1-259, looked up)
chain: T2 sequence
notes: 14-3-3 isoform omega, Arabidopsis; cDNA in the expression vector pQE-30; also called purified recombinant 14-3-3 proteins; RGS(His)6-tagged 14-3-3; source: E. coli M15, purified (Ni2+-NTA agarose, native conditions)

binding [3]: binds | binding [4]: no binding
B3: mCherry:NPH3 (protein, UniProt Q9FMF5 1-746)
chain: T1 sequence with A744S

binding [1]: binds
B4: RFP:NPH3-S744A (protein, UniProt Q9FMF5 1-746)
chain: T1 sequence
